Values marked as one replicate rest on one cluster of the flow cell; about a third of the high ones do not repeat.
What follows are sequences tested on ATP (assay: switch fluorescence ratio, 500 uM ATP over buffer (Cy3 cluster intensity, sum of 5 cycles each) (fold (ratio)); higher = stronger signal-on switching upon ATP binding; sequences stand for … in TCGTCGGCAGCGTCAGATGTGTATAAGAGACAGTTTTTTTTTTTTTTTTTTTTTTTTT…TC). Conditions: aptamer strand: ATP DNA aptamer (quencher-CACCTGGGGGAGTATTGCGGAGGAAGG + anchor), 100 nM annealed; ATP concentration: 500 uM; one replicate.
In short: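 Between each of five buffer/ATP cycles, the flow-cell was stripped with NaOH and re-annealed. Each cycle imaged Cy3-labelled switching-strand clusters, annealed to 100 nM quencher-labelled ATP aptamer on a modified Illumina MiSeq flow-cell, first in selection buffer and then after 15 min with 500 uM ATP at 22 °C. The fluorescence ratio is summed target-cycle over summed buffer-cycle Cy3 intensity per cluster, averaged per switch-domain sequence, with clusters outside 100-1000 RFU excluded.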
For TCGCACTTGG, the switch fluorescence ratio was 1.08.
TCGCAGCCAT showed a switch fluorescence ratio of 2.4.
Work on TCGCAGCGCG yielded a switch fluorescence ratio of 0.998.
For TCGCCAACGT, the switch fluorescence ratio was 0.951.
In the case of TCGCCATACG, the switch fluorescence ratio is reported as 2.73.
In the case of TCGCCCATGA, the switch fluorescence ratio is reported as 0.976.
Work on TCGCCCCAGT yielded a switch fluorescence ratio of 1.06.
With TCGCCGATGT the switch fluorescence ratio was 1.05.
TCGCCGCTGG gave a switch fluorescence ratio of 1.13.
With TCGCCGTTGT the switch fluorescence ratio was 1.04.
Sequence TCGCCTCCCT has a switch fluorescence ratio of 1.59.
Sequence TCGCGATTTT has a switch fluorescence ratio of 0.993.
Sequence TCGCGCTCGA has a switch fluorescence ratio of 1.03.
Work on TCGCTACAAA yielded a switch fluorescence ratio of 1.03.
In the case of TCGCTACGGC, the switch fluorescence ratio is reported as 1.09.
Sequence TCGCTATGGC has a switch fluorescence ratio of 1.22.
TCGCTCTCTG showed a switch fluorescence ratio of 0.991.
In the case of TCGCTGATTA, the switch fluorescence ratio is reported as 1.01.
TCGCTGCGGT showed a switch fluorescence ratio of 1.04.
TCGCTGGGT gave a switch fluorescence ratio of 0.972.
In the case of TCGCTGTAGT, the switch fluorescence ratio is reported as 1.05.
TCGCTTCTTT showed a switch fluorescence ratio of 1.11.
With TCGGAAAACA the switch fluorescence ratio was 0.99.
TCGGAACCCC showed a switch fluorescence ratio of 1.02.
TCGGAACCTA showed a switch fluorescence ratio of 1.03.
TCGGAGGTAG gave a switch fluorescence ratio of 1.01.
Work on TCGGAGTTAA yielded a switch fluorescence ratio of 1.19.
TCGGATAGCC was tested, and the switch fluorescence ratio was 1.1.
Sequence TCGGATCGAA has a switch fluorescence ratio of 1.
For TCGGCCAGAT, the switch fluorescence ratio was 1.04.
With TCGGCCGGAT the switch fluorescence ratio was 1.06.
Work on TCGGCGCAAT yielded a switch fluorescence ratio of 2.1.
TCGGCGGGAC gave a switch fluorescence ratio of 1.84.
TCGGCTGGAT gave a switch fluorescence ratio of 1.06.
In the case of TCGGCTGGGT, the switch fluorescence ratio is reported as 1.
Work on TCGGGACGAT yielded a switch fluorescence ratio of 1.02.
In the case of TCGGGAGTG, the switch fluorescence ratio is reported as 1.03.
In the case of TCGGGAGTGT, the switch fluorescence ratio is reported as 1.01.
For TCGGGCACGT, the switch fluorescence ratio was 1.01.
TCGGGCCACT gave a switch fluorescence ratio of 1.02.
In the case of TCGGGCGTTG, the switch fluorescence ratio is reported as 0.989.
For TCGGGCTCCT, the switch fluorescence ratio was 1.03.
In the case of TCGGGCTGCA, the switch fluorescence ratio is reported as 0.94.
TCGGGGATGG was tested, and the switch fluorescence ratio was 1.02.
In the case of TCGGGGCAAA, the switch fluorescence ratio is reported as 1.05.
TCGGGGCTGC gave a switch fluorescence ratio of 0.967.
TCGGGTACA showed a switch fluorescence ratio of 0.98.
For TCGGGTCAAC, the switch fluorescence ratio was 1.01.
TCGGGTTAAT showed a switch fluorescence ratio of 1.01.
TCGGTAATCT showed a switch fluorescence ratio of 1.04.
TCGGTAGCTA was tested, and the switch fluorescence ratio was 1.11.
With TCGGTATCGG the switch fluorescence ratio was 1.
For TCGGTCAAGT, the switch fluorescence ratio was 1.02.
TCGGTCAGGC gave a switch fluorescence ratio of 1.01.
Sequence TCGGTCGC has a switch fluorescence ratio of 0.955.
Sequence TCGGTCGGTT has a switch fluorescence ratio of 1.
TCGGTTACAG gave a switch fluorescence ratio of 1.
For TCGGTTTCGG, the switch fluorescence ratio was 0.992.
TCGTACAGCT was tested, and the switch fluorescence ratio was 1.02.
In the case of TCGTAGCGGA, the switch fluorescence ratio is reported as 1.49.
Work on TCGTATATAG yielded a switch fluorescence ratio of 1.
Sequence TCGTATATCG has a switch fluorescence ratio of 1.02.
For TCGTATGGCT, the switch fluorescence ratio was 0.995.
Work on TCGTATTATG yielded a switch fluorescence ratio of 1.03.
TCGTCACCAC showed a switch fluorescence ratio of 1.09.
TCGTCAGAGT gave a switch fluorescence ratio of 0.957.
TCGTCAGGGA showed a switch fluorescence ratio of 1.04.
For TCGTCATGAT, the switch fluorescence ratio was 0.987.
TCGTCATTAT showed a switch fluorescence ratio of 1.04.
TCGTCCCCGC gave a switch fluorescence ratio of 2.21.
For TCGTCCCCTT, the switch fluorescence ratio was 1.08.
For TCGTCCTTAT, the switch fluorescence ratio was 1.03.
TCGTCGATAA was tested, and the switch fluorescence ratio was 1.16.
Work on TCGTCGATGA yielded a switch fluorescence ratio of 1.03.
TCGTCTGCGA showed a switch fluorescence ratio of 2.68.
Sequence TCGTGATTGC has a switch fluorescence ratio of 1.05.
With TCGTGGAGTA the switch fluorescence ratio was 1.02.
TCGTGGGTGA gave a switch fluorescence ratio of 1.01.
In the case of TCGTGGTATT, the switch fluorescence ratio is reported as 1.
TCGTGGTT showed a switch fluorescence ratio of 0.973.
TCGTGTTTCC was tested, and the switch fluorescence ratio was 1.05.
With TCGTTCACTT the switch fluorescence ratio was 1.01.
TCGTTCCTAG showed a switch fluorescence ratio of 1.02.
In the case of TCGTTCGATA, the switch fluorescence ratio is reported as 1.02.
TCGTTCTCCT showed a switch fluorescence ratio of 1.02.

From the supplement of paper PMC10126150
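Note: ATP exposure 15 min at 22 °C before imaging.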
